PubChem BioAssay (NCI)
Values joined by “and” are separate entries in the source; they are usually repeats but may differ in a detail not shown here. Identical values can stand only once.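 Cultured in 96-well plates, cells were exposed to test compound for 48 hours across five concentrations. GI50 marks 50% less growth. TGI denotes the concentration required for complete inhibition of growth.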 Peptide text beside a SMILES is read from it. * marks the point of attachment. Boc = CC(C)(C)OC(=O)*; OSu = O=C1CCC(=O)N1O*

Test system: NCI-H322M lung
Assay: NCI tumour cell line growth inhibition, 48 h

| SMILES | TGI | GI50 |
| --- | --- | --- |
| CCC(CON(C)c1ccccc1)(SC)SC | > 100 µM | – |
| O=C1CC2(c3ccccc3)ON=C(c3ccccc3)N2c2ccccc2N1 (stereo unspecified) | > 100 µM | – |
| CCOC(=O)c1ccc(Nc2c3c(nc4ccccc24)CCCC3)cc1 | > 100 µM | – |
| COC(=O)C1Cc2c(OC)ccc(OC)c2CC(C(=O)OC)C1=O (stereo unspecified) | > 100 µM | – |
| Cc1nc(Nc2ccc(Cl)cc2)sc1C(=O)NNc1ccc([N+](=O)[O-])cc1[N+](=O)[O-] | 39.1 µM | – |
| CC(=O)OCC1OC(n2c(-c3ccc(Cl)cc3)ccc(C#N)c2=S)C(OC(C)=O)C(OC(C)=O)C1OC(C)=O (stereo unspecified) | > 100 µM | – |
| [Cl-].[O-]/N=C(\c1ccccc1)c1ccccn1.[O-]/N=C(\c1ccccc1)c1ccccn1.[O-]/N=C(\c1ccccc1)c1ccccn1.[Sm+3] | > 100 µM | 31.6 µM |
| COC(=O)CCC(=O)NC1=C(Nc2ccc(OC)cc2)C(=O)c2ccccc2C1=O | 30.3 µM | – |
| O=C(CC(c1ccccc1)c1c(O)c2ccccc2oc1=O)c1ccccc1 (stereo unspecified) | > 100 µM | – |
| COc1ccc(S(=O)(=O)Nc2ccccc2C(=O)O)cc1 | > 100 µM | – |
| CC(O)c1cc2c(s1)C(=O)c1sccc1C2=O (stereo unspecified) | 0.358 µM | – |
| Cc1cc(S(=O)(=O)Nc2nc3cscc3c(=O)n2Cc2ccccc2)c(S)cc1Cl | 75.9 µM | 18.2 µM |
| Nc1nc(SCc2ccc([N+](=O)[O-])cc2)nc2c1ncn2C1OC(COP(=O)(O)O)C(O)C1O (stereo unspecified) | > 100 µM | – |
| O=c1c(Oc2ccc(F)cc2F)cc2cnc(NC3CCOCC3)nc2n1CCCO | > 25 µM | > 25 µM |
| Cc1[nH]c2c(c1C)S(=O)(=O)c1cc3ccccc3nc1N2 | > 100 µM | – |
| CC(=O)[CH-]C(C)=O.CC(=O)[CH-]C(C)=O.[CH2-]CCC.[CH2-]CCC.[Sn+4] | 2.79 µM | 1.47 µM |
| O=C1c2ccccc2C(Br)(Br)c2ccccc21 | > 100 µM | – |
| O=C1c2ccc(O)cc2C(=O)c2ccc(O)cc21 | > 100 µM | – |
| FC(F)(F)c1nc2nc(Cl)c(Cl)nc2n1CCCN1CCOCC1 | 70.4 µM | – |
| CC(NC(=O)C(NC(=O)OC(C)(C)C)C(C)C)C(=O)NCC(=O)ON1C(=O)CCC1=O (stereo not drawn) (Boc-Val-Ala-Gly-OSu; configuration not given here) | > 100 µM | – |
| CCCCCC(=O)C(C)C1=Nc2nnc(CCCCCCCc3nnc4n3C(=O)C(C(C)C(=O)CCCCC)=N4)n2C1=O (stereo unspecified) | > 100 µM | – |
| COc1cc2c(cc1OC)C(C(CO)CO)N(CC(O)CCl)CC2 (stereo unspecified) | > 100 µM | – |
| CC(C)=CCc1c(OC(=O)c2c(C)cc(O)cc2O)cc(CO)c(CO)c1O | 49.2 µM | – |
| COc1ccc2c(c1)N1CCc3cc(OC)c(OC)cc3C1C2 (stereo unspecified) | > 100 µM | – |

| SMILES | TGI | GI50 |
| --- | --- | --- |
| COC(=O)[C@]1(c2cc3ccccc3n2S(=O)(=O)c2ccccc2)CC2CN(C(C)=O)C1CC2=O (stereo partly specified) | 13 µM | – |
| Clc1ccc(SC(/C=C/NNC2=NC(c3ccccc3)C(c3ccccc3)=NN2)c2ccccc2)cc1 (stereo unspecified) | > 100 µM | – |
| COC(=O)c1c2c(c[n+]([O-])c1C)C(=O)C=CC2=O | 21.7 µM | 10.1 µM |
| Cc1ccc(SC(CCC(Sc2ccc(C)cc2)Sc2ccc(C)cc2)Sc2ccc(C)cc2)cc1 | > 100 µM | – |
| CC[N+](CC)=c1sc2c(s1)C(c1ccc(Cl)cc1)Oc1ccc(Cl)cc1-2 (stereo unspecified) | 10.1 µM | 2.64 µM |
| COc1ccc(-n2cnnc2-c2nsc3ccccc23)cc1 | > 100 µM | – |
| CCOC(=O)c1cc(-c2cc(OC)c(OC)c([N+](=O)[O-])c2)c([N+](=O)[O-])n1C | > 10 µM | – |
| Clc1nc(Cl)c2ncn(Cc3cccc(Cn4cnc5c(Cl)nc(Cl)nc54)c3)c2n1 | 27.3 µM | 14.1 µM |
| C=C1C(O)C2C(=C(CCc3ccccc3)C13CC3)C(=O)C(C)(CO)C2O (stereo unspecified) | > 100 µM | 28.4 µM |
| Nc1ncnc2c1nnn2C1C=CC(COS(N)(=O)=O)C1 (stereo unspecified) | 85.5 µM | – |
| CN(C)c1ccc(C(=C(c2ccc(N(C)C)cc2)c2ccc(N(C)C)cc2)c2ccc(N(C)C)cc2)cc1 | > 100 µM | – |
| C[N-]c1nnnn1C.[Au+].c1ccc([PH+](c2ccccc2)c2ccccc2)cc1 | 22.4 µM | 8.3 µM |
| N#CC1=C(N)n2c(s/c(=C\c3ccc(Cl)cc3)c2=O)=C(c2nc3ccccc3[nH]2)C1c1ccc(Cl)cc1 (stereo unspecified) | 3.57 µM | – |
| COc1cccc(-c2nc3sccn3c2-c2ccnc(NCCCNS(=O)(=O)c3cccc(F)c3)c2)c1 | > 100 µM | 3.6 µM |
| NC(N)=N/N=C/c1nc2n(c1[N+](=O)[O-])CCS2 | > 100 µM | – |
| CC(=O)OC(/C=C/c1ccccc1)P1(=O)N(CC(C)(C)C)[C@@H]2CCCC[C@H]2N1CC(C)(C)C (stereo partly specified) | 23.4 µM and 24 µM | – |
| CC(C)=CC(=O)C/C(=N\NC(N)=S)C(=O)Nc1ccc(Cl)cc1 | > 100 µM | – |
| Nn1c(COc2cccc(OCc3n[nH]c(=S)n3N)c2)n[nH]c1=S | > 100 µM | – |
| Cc1c(Cl)c2ccccc2n1S(=O)(=O)c1ccccc1 | > 100 µM | – |
| CNC(=O)c1ccc(N2CCN(Cc3ccc4nc(C)c(=O)[nH]c4c3F)CC2)c(F)n1 | > 100 µM | > 100 µM |
| CCOC(=O)C1=CNC(C(=O)OCC)C1c1cccn1-c1ccc(Cl)cc1[N+](=O)[O-] (stereo unspecified) | > 100 µM | – |
| CC1(C)N=C(C(N)=O)c2ncn(N)c2N1 | > 100 µM | – |
| O=c1nc(/C=C/c2ccccc2Cl)cc2n1CCN2CCO | > 100 µM | – |
| O=C1CCC2(CC1CC(Sc1ccccc1)Sc1ccccc1)OCCO2 (stereo unspecified) | > 100 µM | – |

| SMILES | TGI | GI50 |
| --- | --- | --- |
| Cc1ccc(C)c2c1C(O)(C#Cc1ccccc1)c1ccccc1C2(O)C#Cc1ccccc1 (stereo unspecified) | > 100 µM | 4.69 µM |
| COC(=O)/C=C1/CCC(C(=O)OC)N1 (stereo unspecified) | > 100 µM | – |
| COc1ccc2c(C)cc(N/N=C/c3ccc(OC)c4ccccc34)nc2c1 | 30.2 µM | – |
| O=c1[nH]c(=O)n(C2OC(COP(=O)(O)OP(=O)(O)OC3OC(CO)C(O)C(O)C3O)C(O)C2O)cc1F (stereo unspecified) | > 100 µM | – |
| C[C@H](CCC(=O)NCCS(=O)(=O)O)[C@H]1CC[C@H]2[C@@H]3CC[C@@H]4C[C@H](O)CC[C@]4(C)[C@H]3CC[C@]12C | > 100 µM | – |
| CC(=O)N=C1N(/C=C2\C(=O)Oc3ccccc3C2=O)C(=O)/C(=C/c2ccc(OC(C)=O)cc2)N1C | > 100 µM | – |
| COc1cc(OC)cc(N(CCNC(C)C)c2ccc3ncc(-c4cnn(C)c4)nc3c2)c1 | 17.1 µM | 4.62 µM |
| COc1cc(NC(N)=NCCC(C)(C)Oc2ccc(C(F)(F)F)cc2)ncc1C#N | 2.78 µM | 1.46 µM |
| CCOC(=O)C1(C/C=C(/C)Cl)CCCC1=O (stereo unspecified) | > 100 µM | – |
| COc1ccc(OC)c2c1CC(C(=O)O)(C(=O)O)CC2=O | > 100 µM | – |
| Cc1ccc(S(=O)(=O)NC(=O)C2C(=O)CC3(CCCCC3)CC2=O)cc1 | 85 µM | – |
| Cc1cc(=O)oc2cc(OC(=O)N(C)C)c(Cl)cc12 | > 100 µM | – |
| Cc1ccsc1/C=N/Nc1nc2ccccc2s1 | 95.7 µM | – |
| C=C1C(=O)O[C@H]2C[C@@H]1CC/C(C)=C/CC/C(C)=C/CC[C@H]2C | 36.2 µM | 16.7 µM |
| C[C@]12CC[C@H]3[C@@H](CC=C4C[C@@H](N5CCCC5)CC[C@@]43C)[C@@H]1C[C@H](N1CCOCC1)[C@@H]2O | > 100 µM | – |
| O=C(Nc1cccc(-n2ccc3c(NC(=O)c4ccccc4)nccc32)c1)Nc1cc(C(F)(F)F)cc(C(F)(F)F)c1 | > 50 µM | 16.8 µM |
| O=C(/N=C/c1c(O)c2ccccc2oc1=O)Nc1ccccc1 | > 100 µM | – |
| CC[C@]12C=CCN3CC[C@@]4(c5cc(Br)c(OC)cc5N(C)[C@H]4[C@@](O)(C(=O)NN)[C@@H]1O)[C@@H]32 | > 100 µM | – |
| CO[C@H]1/C=C/O[C@@]2(C)Oc3c(C)c(O)c4c(c3C2=O)C(=O)C(/C=N/N(c2ccccc2)c2ccccc2)=C(NC(=O)/C(C)=C\C=C\[C@H](C)[C@H](O)[C@@H](C)[C@@H](O)[C@@H](C)[C@H](OC(C)=O)[C@@H]1C)C4=O | 3.77 µM | 1.88 µM |
| COC(=O)[C@@H](C)C[C@H](Cc1ccccc1)NC(=O)c1csc(CC[C@H](C(C)C)N(C)C(=O)[C@@H](NC(=O)[C@H]2CCCCN2C)C(C)C)n1 | > 33.3 µM | 0.704 µM |
| c1cc(N(CCn2cccn2)CCn2cccn2)cc(N(CCn2cccn2)CCn2cccn2)c1 | > 100 µM | – |
| COc1ccc2nc3ccc(OC)cc3c(SCCO)c2c1 | > 100 µM | – |
| Cc1c(Cl)nc(Nc2nc3ccccc3[nH]2)nc1Cl | > 100 µM | – |
| O=CN1CCN(C(=O)c2ccc(Cl)cc2Cl)C1=S | > 100 µM | – |

| SMILES | TGI | GI50 |
| --- | --- | --- |
| O=S(=O)(c1ccccc1)n1c2ccc(Br)cc2c2nc3ccccc3nc21 | > 100 µM | – |
| COc1ccc(-c2cc(=O)c3cc4c(cc3[nH]2)OCO4)cc1OC | > 100 µM | – |
| CCOC(=O)c1sc(-c2ccc(OS(=O)(=O)c3ccc(Br)s3)c(C=O)c2)nc1C | > 100 µM | 27.3 µM |
| Cc1ccc(N2Cc3c(ccc4ccccc34)OP2(=O)Oc2ccc(Cl)c(C)c2)cc1 (stereo unspecified) | > 100 µM | – |
| [N-]=[N+]=C1N=CN=C1c1ncn[nH]1 | > 100 µM | – |
| CC(NC(=O)C(C)NC(=O)C(N)CCP(C)(=O)O)C(=O)O (stereo unspecified) | > 100 µM | – |
| O=C(/C=C/c1ccc(O)cc1)c1ccc2c(c1)OCO2 | 99.4 µM | – |
| Cc1[nH]c2ccccc2c1C(=O)CC1(O)C(=O)Nc2ccccc21 (stereo unspecified) | > 100 µM | – |
| CC[C@H](O)[C@H](C)C=C1SCCCS1 | > 100 µM | – |
| Cc1cc2c(ccc3c(C)cc(=O)oc32)o1 | > 100 µM | – |
| Cc1nn(-c2nc3ccccc3[nH]2)c(N)c1-c1ccc(Cl)cc1 | > 100 µM | 4.23 µM |
| Cn1cc(C2=C(c3cn(CCCCN)c4ccccc34)C(=O)NC2=O)c2ccccc21 | > 25 µM | > 25 µM |
| COc1ccc(C(=O)/C=C/c2ccc(C)cc2)cc1OC | 39.4 µM | 16.1 µM |
| O=C1c2ccccc2-c2c1c1c(=O)[nH]c3ccccc3c1n2Cc1ccccc1 | > 100 µM | 31.8 µM |
| CC(C)(C)C(=O)c1c(C(F)(F)F)n([O-])c2ccccc2[n+]1=O | 5.13 µM | 1.94 µM |
| N/C(=N\S(=O)(=O)c1ccc(S(=O)(=O)c2ccccc2)s1)Nc1ccc(Cl)cc1 | 52.9 µM | – |
| COc1ccc(-c2cc(=O)c3ccc(C)nc3[nH]2)cc1 | > 100 µM | – |
| C[Si](C)(OCCS(=O)(=O)O)C1(Cc2cccc3ccccc23)S(=O)(=O)OCCOS1(=O)=O | 48.9 µM | – |
| S=C(Nc1ccc(Br)cc1)Nc1ccc(Br)cc1 | > 100 µM | > 100 µM |
| Cc1cccc2c(=O)c([Se]c3coc4c(C)cccc4c3=O)coc12 | 18.4 µM | – |
| CCCCCC[N+](C)(C)Cc1ccc(C[N+](C)(C)CCCCCC)cc1 | 9.25 µM | – |
| CCOC(=O)C1N(S(=O)(=O)c2ccc(C)cc2)CCC12c1ccccc1N(C(C)=O)C2c1ccc(OC)c(OC)c1 (stereo unspecified) | > 100 µM | – |
| CCOC(=O)N1CCN(c2nc(Nc3cc(C)[nH]n3)c3ccccc3n2)CC1 | 78.3 µM | 12.9 µM |
